In PubChem BioAssay AID1468 (National Center for Advancing Translational Sciences (NCATS), 2008):
The whole screen tested about 280,000 compounds, of which about 1,100 (0.39%) were called active. Inconclusive results, whose numbers are uncertain, are shown with a selection of clear calls. Calls follow the shape of the dose curve; as a rule, active = well fitted inhibition curve with a large enough effect; inconclusive = small, poorly fitted or top-dose-only effect, or effect the other way; inactive = flat fitted curve, though single readings scatter. Where the call is inconclusive, the potency comes from a doubtful curve fit.

molecular target: Microtubule-associated protein tau (Homo sapiens) (UniProt P10636); assay: qHTS for Inhibitors of Tau Fibril Formation, Fluorescence Polarization; conditions: K18 P301L tau heparin fibrillization, Alexa594 FP, 6 h; series mostly up to 57.7 µM; also: nearly all actives have a fitted effect of over 55% in size
UniProt P10636, sequence (P10636 whole entry, looked up): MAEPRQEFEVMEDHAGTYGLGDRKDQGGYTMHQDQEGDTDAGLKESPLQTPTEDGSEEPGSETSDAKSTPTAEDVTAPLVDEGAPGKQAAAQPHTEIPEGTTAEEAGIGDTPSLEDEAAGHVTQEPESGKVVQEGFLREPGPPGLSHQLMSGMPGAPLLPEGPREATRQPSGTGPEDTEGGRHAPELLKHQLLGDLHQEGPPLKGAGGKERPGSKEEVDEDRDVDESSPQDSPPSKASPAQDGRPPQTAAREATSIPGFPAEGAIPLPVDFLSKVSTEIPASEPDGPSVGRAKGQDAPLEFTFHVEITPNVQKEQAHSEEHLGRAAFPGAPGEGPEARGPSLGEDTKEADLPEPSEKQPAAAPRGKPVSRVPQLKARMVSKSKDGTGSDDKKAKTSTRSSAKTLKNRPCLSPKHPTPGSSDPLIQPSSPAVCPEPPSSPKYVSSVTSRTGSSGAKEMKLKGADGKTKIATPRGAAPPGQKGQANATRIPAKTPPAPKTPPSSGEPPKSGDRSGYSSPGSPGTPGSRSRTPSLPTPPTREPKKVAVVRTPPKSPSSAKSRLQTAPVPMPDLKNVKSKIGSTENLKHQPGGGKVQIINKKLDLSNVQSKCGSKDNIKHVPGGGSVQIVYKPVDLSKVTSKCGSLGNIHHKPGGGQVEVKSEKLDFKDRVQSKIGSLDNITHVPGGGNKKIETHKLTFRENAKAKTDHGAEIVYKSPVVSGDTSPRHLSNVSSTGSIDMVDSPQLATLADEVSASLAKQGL
Method in brief: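 Quantitative HTS format: compounds meet 15 uM recombinant K18 P301L tau and Alexa 594-tau tracer in 100 mM sodium acetate pH 7; 20 uM heparin triggers fibrillization at 37 C over 6 hr; FP gives the signal.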
Potency is read from the fitted curve at half-maximal effect; tags tell the direction and shape of the fitted curve.

Potency, inactive:
CCCCc1ccc(-n2nc3ccc(NC(=O)c4cc5ccccc5o4)cc3n2)cc1, CCOCCCn1c(SCC(=O)Nc2ccccc2CC)nc2ccccc2c1=O, CN(Cc1nc(-c2ccccc2)no1)C1CCOCC1, CCOc1ccc(CCNC(=O)c2ccc3c(c2)N(Cc2ccc(F)cc2)CCS3)cc1, Cc1cc(Cl)ccc1OCCCC(=O)N1CCN(C(=O)c2ccco2)CC1, COC(=O)C1=C(C)NC(C)=C(C(=O)OCCSc2ccccc2)[C@@H]1C, Cc1c(C)n(Cc2ccccc2)c2ccc(C(=O)NCC(C)c3ccccc3)cc12 (stereo unspecified), CCn1c(CN2CCN(c3cccc(C)c3C)CC2)n[nH]c1=S, O=C(Cn1cnc2nc3c(cc2c1=O)CCCC3)Nc1ccc(F)cc1Cl, CC(=O)Nc1cccc(O)c1, O=[N+]([O-])c1ccc(N2CCN(S(=O)(=O)c3ccc(Cl)cc3)CC2)cc1NCC1CCCO1 (stereo unspecified), O=C(Nc1nccs1)c1ccc(Cl)c(S(=O)(=O)N2CCOCC2)c1, CCN(CC)S(=O)(=O)c1ccc(-c2csc(=Nc3cccc(C(F)(F)F)c3)n2Cc2ccc3c(c2)OCO3)cc1, Cc1cccc2cc(CN(Cc3ccco3)C(c3nnnn3CCc3ccccc3)C(C)C)c(=O)[nH]c12 (stereo unspecified), CCN(CC(=O)Nc1ccc2c(c1)CCC2)Cc1nc2ccccc2c(=O)[nH]1, Cc1cc(SCC(=O)NC(=O)c2cccn2C)nc2ccccc12, C[N+](C)(C)C/C=C1/COCO1, COc1ccc(NC(=O)c2ccc(CNc3c(NC4CCCCC4)c(=O)c3=O)cc2)cc1OC, O=c1c2c3c(sc2n(Cc2ccccc2F)c(=O)n1-c1ccc(Cl)cc1)CCCC3, COCCN(C(=O)COc1ccc(Cl)cc1)c1nnc(-c2cccnc2)s1, O=C(Nc1ccc(Cl)cc1)N1CCN(Cc2ccc3c(c2)OCO3)CC1

Potency, active:
COc1cccc(NC(=O)Cn2c(=O)n(Cc3ccc(C(=O)NCc4ccc5c(c4)OCO5)cc3)c(=O)c3ccccc32)c1 25.1 µM

Potency, inconclusive:
CCCCOC(=O)c1ccc(NC(=O)CSC2=Nc3ccccc3C3CC=NN23)cc1 (stereo unspecified) 20 µM [inhibitor, single point], O=C(Nc1ccc(O)c2c(=O)cc(-c3ccccc3Cl)oc12)c1ccccc1Cl 3.98 µM [inhibitor, single point], O=C(Nc1cccc(Br)c1)c1ccc(OC2CSC2)cc1 14.1 µM [inhibitor, partial curve], O=C(NCCOc1ccccc1)O[C@@H]1C(=O)c2cc(Br)ccc2O[C@H]1c1ccc2c(c1)OCO2 15.8 µM [inhibitor, single point], CN1CCN(C(CNC(=O)c2ccc(F)cc2)c2ccc3c(c2)OCO3)CC1 (stereo unspecified) 20 µM [inhibitor, single point], O=S(=O)(c1ccc2nc(-c3ccccc3)[nH]c2c1)N1CCN(c2ccc(Cl)cc2)CC1 8.91 µM [inhibitor, partial curve], COc1ccc(C(=O)n2nc(-c3ccco3)nc2N)cc1OC 10 µM [inhibitor, single point], Cc1nn(-c2ccccc2)c2c1C1(C(=O)N(C(C)C)c3ccccc31)C(C#N)=C(N)O2 (stereo unspecified) 35.5 µM [inhibitor, single point], N#CC(C#N)=C1C(=O)N(CCN2CCOCC2)c2ccccc21 28.2 µM [inhibitor, single point], O=C(Nc1ccc(F)cc1)c1oc2ccccc2c1NC(=O)C1CCCCC1 17.8 µM [inhibitor, partial curve], CCCSC1=N/C(=C\C=C\c2ccco2)C(=O)S1 25.1 µM [inhibitor, partial curve], Cc1ccc(N2C(S)=C(C#N)C(=O)NC2c2ccco2)cc1 (stereo unspecified) 28.2 µM [inhibitor, single point], O=C(Cn1nnc(-c2ccccc2NC(=O)c2cccs2)n1)Nc1ccccc1 17.8 µM [inhibitor, partial curve], Cc1ccc(S(=O)(=O)N2CCCc3cc(NS(=O)(=O)c4ccc(F)cc4)ccc32)cc1 17.8 µM [inhibitor, single point], CC(C(=O)Nc1ccc2c(c1)OCCO2)n1nnc(-c2ccccc2)n1 (stereo unspecified) 14.1 µM [inhibitor, partial curve], COc1cc(NC(=O)Nc2cccc([N+](=O)[O-])c2)cc(OC)c1 39.8 µM [inhibitor, single point], CCC(C)C(=O)N1c2ccccc2C(=C2SC(C(=O)OC)=C(C(=O)OC)S2)C(=S)C1(C)C (stereo unspecified) 7.08 µM [inhibitor, partial curve, poor fit], C/C(N)=C(/C#N)C(=O)CSc1nc2cc(Cl)ccc2s1 25.1 µM [inhibitor, single point], O=C(Nc1nc(=O)n(C(=O)c2cccc(C(F)(F)F)c2)s1)c1ccccc1 25.1 µM [inhibitor, partial curve], CCOC(=O)c1c(NC(=O)Nc2ccc(F)cc2)sc(C(=O)N(C)C)c1C 28.2 µM [inhibitor, single point], CC/C(C)=N/N1C(=O)c2ccccc2NC1(C)CC (stereo unspecified) 44.7 µM [inhibitor, single point], CCOC(=O)C1=C(C)N(c2ccc(C)cc2)C(=O)/C1=C\c1ccc(O)c(OC)c1 22.4 µM [inhibitor, partial curve], COc1cc(NC(=O)CN2C(=O)C(c3ccc(Cl)cc3)=NC23CCCCC3)cc(OC)c1 14.1 µM [inhibitor, partial curve, poor fit], Cc1cc(-c2ccc(S(=O)(=O)Nc3cc(Cl)ccc3C)s2)on1 25.1 µM [inhibitor, partial curve]
